Results published in publication PMC4336329 (PLoS ONE, 2015).
The campaign covered roughly 310,000 compounds. About 2,200 (0.71%) showed an effect of 50% or more. Effects have a minus sign here. The list shows a part of the results.

These compounds were tested against human ether-à-go-go-related gene (hERG) potassium channel (human, UniProt Q12809) (assay: primary screen, population patch clamp on CHO cells stably expressing hERG).
Sequence of human ether-à-go-go-related gene (hERG) potassium channel (Q12809 whole entry, looked up): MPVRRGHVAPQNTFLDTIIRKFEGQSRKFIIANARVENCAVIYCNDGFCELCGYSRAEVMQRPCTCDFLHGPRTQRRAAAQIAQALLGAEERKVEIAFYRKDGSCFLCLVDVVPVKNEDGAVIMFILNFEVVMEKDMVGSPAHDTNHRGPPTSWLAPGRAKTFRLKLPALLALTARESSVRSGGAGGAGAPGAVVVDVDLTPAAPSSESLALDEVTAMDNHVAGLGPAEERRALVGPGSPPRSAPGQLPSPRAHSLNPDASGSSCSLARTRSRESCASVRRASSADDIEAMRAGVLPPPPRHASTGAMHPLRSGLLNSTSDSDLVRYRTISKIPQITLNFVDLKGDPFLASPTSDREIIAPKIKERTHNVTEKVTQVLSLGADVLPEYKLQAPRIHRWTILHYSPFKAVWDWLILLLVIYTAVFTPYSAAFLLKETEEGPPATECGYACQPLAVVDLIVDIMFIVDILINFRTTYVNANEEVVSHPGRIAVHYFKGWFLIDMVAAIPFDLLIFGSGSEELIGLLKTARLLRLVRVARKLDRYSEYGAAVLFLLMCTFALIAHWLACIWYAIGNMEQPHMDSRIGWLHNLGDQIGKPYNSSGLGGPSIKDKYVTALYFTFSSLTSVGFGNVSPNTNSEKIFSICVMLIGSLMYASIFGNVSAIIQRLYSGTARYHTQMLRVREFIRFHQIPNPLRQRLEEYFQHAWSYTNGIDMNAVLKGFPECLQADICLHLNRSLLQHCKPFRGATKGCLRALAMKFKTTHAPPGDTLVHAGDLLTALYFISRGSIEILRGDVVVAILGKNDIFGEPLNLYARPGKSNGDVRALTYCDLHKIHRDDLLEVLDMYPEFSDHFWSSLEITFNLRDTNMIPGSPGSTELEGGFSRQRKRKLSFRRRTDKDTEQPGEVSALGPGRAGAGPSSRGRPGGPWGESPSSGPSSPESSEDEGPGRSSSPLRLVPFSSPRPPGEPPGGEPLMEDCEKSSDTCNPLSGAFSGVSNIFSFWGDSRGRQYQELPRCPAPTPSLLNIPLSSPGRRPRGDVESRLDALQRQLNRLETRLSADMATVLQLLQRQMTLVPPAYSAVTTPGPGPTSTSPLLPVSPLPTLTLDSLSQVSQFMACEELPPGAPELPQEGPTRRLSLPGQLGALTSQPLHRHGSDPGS

Row | Structure (SMILES) | hERG current change (%, negative = inhibition) at 1uM [%]
1 | CC(C)N(C(=O)COC(=O)CNC(=O)c1ccc(Br)cc1)c1ccccc1 | 15.5
2 | CNS(=O)(=O)c1cc2c3c(cccc3c1)C(=O)NC2=O | 8.87
3 | COc1ccc(C(=O)n2c(SC)nc3cc4c(cc32)OCCO4)cc1 | 9.73
4 | Oc1c(Cl)cc(Cl)cc1/C=N/c1nccs1 | -5.02
5 | O=C(O)Cc1ccc(-c2ccccc2-c2ccccc2)cc1 | 7.1
6 | COc1cccc(NC(=O)c2cccc(OC)c2OC)c1 | 7.39
7 | CCOCCCNC(=O)c1ccc(N(C)S(=O)(=O)c2ccc(OC)cc2)cc1 | 7.45
8 | CCCn1nc2cc(C(=O)NCc3ccccc3)ccc2c1OCC | 3.87
9 | CCN(CC)S(=O)(=O)c1ccc2c(c1)nc(SCC(=O)NC1CC1)n2-c1ccccc1OC | -9.78
10 | Cc1ccccc1NS(=O)(=O)c1cccc2nonc12 | 12.5
11 | C/C(=N/NC(=O)c1ccoc1C)c1ccc(NC(=O)c2ccncc2)cc1 | 10.3
12 | COc1ccc(C(=O)C2=NN(C(C)=O)CC2c2ccco2)cc1 (centres unmarked) | 8.53
13 | Cc1cccc(-n2cnc(C(=O)NNC(=S)Nc3ccc(Cl)cc3)c2)n1 | 11.8
14 | CC(=O)c1cc(NC(=O)c2ccc(Cl)cc2)c(=O)oc1/C=C/N(C)C | 0.673
15 | COc1ccc(CN(Cc2nc3ccccc3c(=O)[nH]2)C(=O)c2ccco2)cc1 | 10.4
16 | CN1CCN(c2nc(-c3ccc(C(C)(C)C)cc3)nc3ccccc23)CC1.Cl | 2.04
17 | COc1ccc2nc(NC(=O)C3CSC4(C)CCC(=O)N34)sc2c1 (centres unmarked) | 3.14
18 | C[C@@]12C(=O)Nc3cc(Cl)ccc3C(=O)N1[C@H]1c3cc(Br)ccc3OC[C@@H]1[C@@H]2c1ccccc1 | 13.7
19 | COc1ccc(NC(=O)Nc2nc(C)cc(C)n2)c(OC)c1 | 10.1

Row | Structure (SMILES) | hERG current change (%, negative = inhibition) at 1uM [%]
20 | CSc1ccccc1C(=O)C1CCCN(C(=O)CCN2CCCO2)C1 (centres unmarked) | 5.56
21 | COc1cc(/C=C/c2cccc[n+]2C)ccc1OCC(=O)Nc1cccc(Cl)c1.[I-] | 4.57
22 | O=C(C(=O)N1CCCC1CO)N1CCCC1CO (centres unmarked) | 11.3
23 | Cc1ccc(N2CC(C(=O)OCC(=O)c3ccc([N+](=O)[O-])cc3)CC2=O)cc1 (centres unmarked) | -2.98
24 | O=[N+]([O-])c1ccc(COP(=O)([O-])OCc2ccc([N+](=O)[O-])cc2)cc1.[Na+] | 2.35
25 | CCOC(=O)C(NCCc1ccccc1F)(NC(=O)CC)C(F)(F)F (centres unmarked) | 4.35
26 | CCN(CC)CCCNc1nnc(C)c(=O)[nH]1 | 6.17
27 | COc1ccc(Cl)cc1NC(=O)CCc1nnc2ccc(N3CCN(C)CC3)nn12 | 10.2
28 | O=C(O)c1ccc(NCc2cccs2)cc1 | 11.3
29 | O=C(O)CCC(=O)Nc1cccc(C(=O)Nc2ccc(Br)cc2)c1 | 11.9
30 | COc1ccc(CN2CCc3ccccc3C2)c(OC)c1 | -6.81
31 | O=C(NCC(c1cccs1)N1CCOCC1)c1cn(-c2ccccc2)nc1-c1ccc(Cl)cc1 (centres unmarked) | 5.28
32 | CCOC(=O)N1CCN(CCC(=O)Nc2ccc(OC)cc2OC)CC1 | 3.55
33 | Cc1ccccc1C(=O)NCCCNC(=O)c1ccco1 | 16.8
34 | COc1ccc(NC(=O)C2CCCN(S(=O)(=O)c3cccc4nonc34)C2)cc1 (centres unmarked) | 32.8
35 | CC(C)C(=O)Nc1nnc(Sc2ccc(N(C)C)cc2)s1 | 12.1
36 | COc1cc(OC)c(OC)cc1NC(=O)CC1COc2ccccc2O1 (centres unmarked) | 14.8
37 | O=C(CCCN1C(=O)c2ccccc2C1=O)NCc1ccc(F)cc1 | 4.89
38 | CCn1c(SCC(=O)Nc2nccs2)nnc1-c1ccco1 | 11.3

Row | Structure (SMILES) | hERG current change (%, negative = inhibition) at 1uM [%]
39 | CCc1c(C)sc(NC(=O)C2CCCO2)c1C#N (centres unmarked) | 2.69
40 | COc1ccc(C[C@H](N)C(=O)N[C@H]2[C@@H](O)[C@H](n3cnc4c(N(C)C)ncnc43)O[C@@H]2CO)cc1.Cl | 0.716
41 | CCCCOCCCNS(=O)(=O)Cc1ccccc1 | 3.6
42 | CC(=O)Nc1nc2c(C)cc(NC(=O)C3CCCCC3)cc2s1 | 8.2
43 | Cc1ccc(NC(=O)Cn2ccnc2)cc1C | 8.73
44 | O=C(c1cc2cc(Cl)ccc2[nH]1)N1CCN(C(=O)c2ccco2)CC1 | 1.45
45 | CC1=NN(c2ccccc2)C(=O)/C1=C/c1c(O)n(-c2ccc(F)c(Cl)c2)[nH]c1=O | 7.59
46 | COc1ccccc1CCN=C(N)NS(=O)(=O)c1ccc(C)c(C)c1 | 17.6
47 | O=[N+]([O-])c1cc(C(F)(F)F)ccc1N1CCN(S(=O)(=O)c2ccc3ccccc3c2)CC1 | 10.9
48 | CC1CCCN(CCCNC(=O)C2CCCN(c3ncnc4c3nc3n4CCCCC3)C2)C1 (centres unmarked) | 7.17
49 | O=C(Oc1ccc(C(=S)N2CCOCC2)cc1)c1ccccc1 | 28.6
50 | CCCn1nc(NC(=O)C2CCCO2)c2cc3cccc(C)c3nc21 (centres unmarked) | 10.7
51 | O=C1NC(=O)N(c2ccc3c(c2)OCO3)C(=O)/C1=C\c1ccc(N2CCCCC2)o1 | 12.4
52 | Clc1ccccc1-c1nn2c(COc3ccccc3)nnc2s1 | 0.0671
53 | COc1ccc(NS(=O)(=O)c2cc(NC(=O)C3CCCO3)ccc2N2CCCCC2)cc1 (centres unmarked) | 9.85
54 | O=S(=O)(Nc1ccccn1)c1ccc(Cl)cc1 | 1.52
55 | CCc1cccc(CC)c1NC(=O)CN1C2CCCC1CC(NC(=O)Nc1cccc(OC)c1)C2 (centres unmarked) | 9.12
56 | Cn1c(SCCOc2cccc(Cl)c2)nnc1-c1ccncc1 | -22.7
